Source: PMC10657422
These are yes or no findings as the source states them, for the method shown. In cells and extracts the contact can be indirect. Some results given as binding are weak or reduced against the parent protein; the word gives no strength. Where a sequence is shown, tags or fusion partners need not be part of it.

Amino acid sequences for entries named in this document (tags omitted).
UniProt Q96704: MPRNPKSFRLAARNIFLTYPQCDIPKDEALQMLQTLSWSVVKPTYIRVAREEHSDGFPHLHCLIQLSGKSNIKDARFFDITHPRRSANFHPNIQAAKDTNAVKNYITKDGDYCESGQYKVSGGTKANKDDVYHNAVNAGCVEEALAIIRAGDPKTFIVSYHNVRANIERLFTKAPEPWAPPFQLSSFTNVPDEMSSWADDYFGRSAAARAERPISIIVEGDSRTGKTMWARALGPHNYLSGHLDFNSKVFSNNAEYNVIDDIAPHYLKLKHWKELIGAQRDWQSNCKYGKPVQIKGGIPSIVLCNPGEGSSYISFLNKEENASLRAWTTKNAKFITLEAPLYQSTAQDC

Assays:
[1] = target: T1, cYFP-RAD51 (Arabidopsis thaliana) (UniProt P94102); assay: split reporter; BiFC of YFP; nYFP and cYFP fusions co-expressed in Arabidopsis protoplasts of Col-0 and of atxr5 atxr6; confocal microscopy 16 h after transfection
T1 sequence: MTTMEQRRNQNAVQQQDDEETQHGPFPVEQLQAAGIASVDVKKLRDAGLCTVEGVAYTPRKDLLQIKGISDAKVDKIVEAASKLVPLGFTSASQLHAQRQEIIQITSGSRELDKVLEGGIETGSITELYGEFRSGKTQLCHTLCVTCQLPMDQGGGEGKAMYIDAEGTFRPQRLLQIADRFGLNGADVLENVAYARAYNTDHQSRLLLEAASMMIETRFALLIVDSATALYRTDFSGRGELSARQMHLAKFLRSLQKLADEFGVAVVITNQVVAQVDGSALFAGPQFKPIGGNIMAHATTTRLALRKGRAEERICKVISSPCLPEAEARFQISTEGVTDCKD

[2] = target: T2, FM-RAD51 (Flag-4Myc-tagged RAD51) (Arabidopsis thaliana) (UniProt P94102); assay: co-IP; co-expressed in N. benthamiana leaves by agroinfiltration; total protein extract; IP buffer 40 mM Tris-HCl pH 8.0, 150 mM NaCl, 5 mM MgCl2, 1% glycerol, 0.6% Triton X-100; anti-HA agarose or anti-FLAG-M2 magnetic beads, 4 °C, 2 h; Turbo DNase (10 U/ml) in the buffer; blots with anti-Myc or anti-HA
T2 sequence: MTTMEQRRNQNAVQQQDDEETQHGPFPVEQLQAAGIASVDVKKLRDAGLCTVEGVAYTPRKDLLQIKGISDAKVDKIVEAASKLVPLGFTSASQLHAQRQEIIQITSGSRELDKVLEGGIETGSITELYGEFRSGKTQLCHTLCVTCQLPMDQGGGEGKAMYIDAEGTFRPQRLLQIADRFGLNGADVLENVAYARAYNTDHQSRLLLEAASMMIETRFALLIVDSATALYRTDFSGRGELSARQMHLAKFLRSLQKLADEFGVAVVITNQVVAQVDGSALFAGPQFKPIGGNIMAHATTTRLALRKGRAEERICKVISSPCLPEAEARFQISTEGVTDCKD

[3] = target: FM-Rep (Flag-4Myc-tagged Rep of CaLCuV) (Cabbage Leaf Curl Virus (CaLCuV)) (UniProt Q96704); assay: as above
[4] = target: HA-Rep (HA-tagged Rep of CaLCuV) (Cabbage Leaf Curl Virus (CaLCuV)) (UniProt Q96704); assay: as above
[5] = target: T3, HA-BRCA1 (HA-tagged BRCA1) (Arabidopsis thaliana) (UniProt Q8RXD4); assay: co-IP; co-expressed in N. benthamiana leaves by agroinfiltration; total protein extract; IP buffer 40 mM Tris-HCl pH 7.0, 150 mM NaCl, 5 mM MgCl2, 1% glycerol, 0.6% Triton X-100; anti-HA agarose or anti-FLAG-M2 magnetic beads, 4 °C, 2 h; Turbo DNase (10 U/ml) in the buffer; blots with anti-Myc or anti-HA
T3 sequence: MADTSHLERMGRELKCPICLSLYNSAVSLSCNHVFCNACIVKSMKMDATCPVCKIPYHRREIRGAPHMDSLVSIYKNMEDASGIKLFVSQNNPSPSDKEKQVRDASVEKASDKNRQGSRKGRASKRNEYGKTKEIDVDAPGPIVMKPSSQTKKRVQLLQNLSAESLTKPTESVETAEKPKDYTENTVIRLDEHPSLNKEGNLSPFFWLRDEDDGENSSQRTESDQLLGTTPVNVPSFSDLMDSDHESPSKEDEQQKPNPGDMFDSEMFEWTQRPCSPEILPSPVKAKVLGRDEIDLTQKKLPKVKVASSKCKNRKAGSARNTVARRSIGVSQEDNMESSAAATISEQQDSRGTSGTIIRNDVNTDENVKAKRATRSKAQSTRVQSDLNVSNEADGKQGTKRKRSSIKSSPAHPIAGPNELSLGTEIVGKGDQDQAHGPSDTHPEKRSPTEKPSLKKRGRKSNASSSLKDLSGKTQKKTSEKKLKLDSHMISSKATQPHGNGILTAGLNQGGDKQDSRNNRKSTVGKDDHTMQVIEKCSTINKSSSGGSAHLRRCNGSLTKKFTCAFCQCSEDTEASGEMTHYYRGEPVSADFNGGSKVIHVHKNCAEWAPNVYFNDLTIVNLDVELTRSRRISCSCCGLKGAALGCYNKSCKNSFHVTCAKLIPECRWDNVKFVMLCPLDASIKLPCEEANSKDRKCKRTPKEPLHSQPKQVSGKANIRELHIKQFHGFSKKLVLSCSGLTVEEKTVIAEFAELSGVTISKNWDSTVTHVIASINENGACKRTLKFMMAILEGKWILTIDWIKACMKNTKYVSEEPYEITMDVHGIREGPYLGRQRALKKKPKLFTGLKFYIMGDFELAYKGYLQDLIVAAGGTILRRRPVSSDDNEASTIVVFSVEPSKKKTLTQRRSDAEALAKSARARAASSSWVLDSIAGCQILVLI

[6] = target: T4, HA-CYCB1 (HA-tagged CYCB1;1) (Arabidopsis thaliana) (UniProt P30183); assay: as above
T4 sequence: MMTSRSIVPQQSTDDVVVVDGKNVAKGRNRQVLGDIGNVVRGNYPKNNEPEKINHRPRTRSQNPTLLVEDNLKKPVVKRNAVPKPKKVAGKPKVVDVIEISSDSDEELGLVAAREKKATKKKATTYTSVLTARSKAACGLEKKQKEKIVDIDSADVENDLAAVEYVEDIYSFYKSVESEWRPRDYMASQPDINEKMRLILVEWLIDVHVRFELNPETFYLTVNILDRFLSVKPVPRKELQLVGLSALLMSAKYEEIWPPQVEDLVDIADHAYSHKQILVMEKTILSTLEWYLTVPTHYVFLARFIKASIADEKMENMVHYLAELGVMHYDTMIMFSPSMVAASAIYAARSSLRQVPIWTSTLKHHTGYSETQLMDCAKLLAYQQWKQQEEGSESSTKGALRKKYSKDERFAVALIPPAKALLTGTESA

In the case of nYFP-Rep (from UniProt Q96704 1-349), the binding [1] is reported as “binds”.

B1: HA-RPA1A (HA-tagged RPA1A) (protein, UniProt Q9SKI4 1-640)
chain: MPVSLTPNAITAIHDGDVNLKPLLQVLEIKMIGRSQERSQERYRFLISDGVSAQHAMVAVQLNDRVKSGQFEKGSIVQLIDYICSDVKGRKLIVVLNMETIVQQSETIGNPTIFGETDTEAQKTFSGTGNIPPPNRVVFNEPMVQHSVNRAPPRGVNIQNQANNTPSFRPSVQPSYQPPASYRNHGPIMKNEAPARVIPIAALNPYQGRWAIKARVTAKGDIRRYNNAKGDGKVFSFDLLDYDGGEIRVTCFNALVDRFYDVTEVGKVYLISKGSLKPAQKNFNHLKNEWEIFLESTSTVELCPDEDGSIPKQQFSFRPISDIENAENNTILDVIGVVTSVNPSVPILRKNGMETHRRILNLKDESGKAVEVTLWGEFCNRDGRQLEEMVDSAFHPVLAIKAGKVSDFSGKSVGTISSTQLFINPDFPEAHKLRTWFDYGGKDTASFSISRDTMPGGVSRNEIRKNVSQIKEEGLGRSDKPDWITVKATISFIKTDSFCYTACPLMIGDKQCNKKVTRSGTNRWLCDRCNQESDECDYRYLLQVQIQDHTGLTWITAFQETGEEIMGCPAKKLYAMKYELEKEEEFAEIVRDRLFHQYMLKLKIKEESYGDEQRVKMTVVKVDKVNYTSESKYMLDLLVR
For B1, the binding [2] was “binds” and the binding [3] was “binds”.

B2: FM-RAD51 (Flag-4Myc-tagged RAD51) (protein, UniProt P94102 1-342)
chain: MTTMEQRRNQNAVQQQDDEETQHGPFPVEQLQAAGIASVDVKKLRDAGLCTVEGVAYTPRKDLLQIKGISDAKVDKIVEAASKLVPLGFTSASQLHAQRQEIIQITSGSRELDKVLEGGIETGSITELYGEFRSGKTQLCHTLCVTCQLPMDQGGGEGKAMYIDAEGTFRPQRLLQIADRFGLNGADVLENVAYARAYNTDHQSRLLLEAASMMIETRFALLIVDSATALYRTDFSGRGELSARQMHLAKFLRSLQKLADEFGVAVVITNQVVAQVDGSALFAGPQFKPIGGNIMAHATTTRLALRKGRAEERICKVISSPCLPEAEARFQISTEGVTDCKD
For B2, the binding [4] was “binds”, the binding [5] was “binds” and the binding [6] was “binds”.
